# From the supplement of paper PMC8728848
# This is one part of the list.
# B1: GNAT (Pseudomonas aeruginosa), Q9HV14 (protein)
# chain: MQLSHRPAETGDLETVAGFPQDRDELFYCYPKAIWPFSVAQLAAAIAERRGSTVAVHDGQVLGFANFYQWQHGDFCALGNMMVAPAARGLGVARYLIGVMENLAREQYKARLMKISCFNANAAGLLLYTQLGYQPRAIAERHDPDGRRVALIQMDKPLEP
# What was measured:
# Experiment in all cases: glycan array binding signal (z-score within array); higher = stronger binding
# Conditions in all cases: glycan notation: IUPAC condensed, linker removed
# [1] = target: Neu5Ac(a2-6)Gal(b1-4)GlcNAc(b1-2)Man(a1-3)[GlcNAc(b1-2)Man(a1-6)]Man(b1-4)GlcNAc(b1-4)GlcNAc
# Summary of the method: (§1)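 The Consortium for Functional Glycomics database supplied 3228 glycan arrays, of which those lacking an available protein sequence were dropped. The binding signal, a within-array Z-score, was averaged across arrays of the same protein sequence and across linkers. Negative scores can be read as non-binding.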
# [2] = target: Neu5Ac(a2-6)Gal(b1-4)GlcNAc(b1-2)Man(a1-3)[GlcNAc(b1-2)Man(b1-4)GlcNAc(b1-2)Man(a1-6)]Man(b1-4)GlcNAc(b1-4)GlcNAc
# Summary of the method: as §1
# [3] = target: Neu5Ac(a2-6)Gal(b1-4)GlcNAc(b1-2)Man(a1-3)[Man(a1-6)]Man(b1-4)GlcNAc(b1-4)GlcNAc
# Summary of the method: as §1
# [4] = target: Neu5Ac(a2-6)Gal(b1-4)GlcNAc(b1-2)Man(a1-3)[Neu5Ac(a2-6)Gal(b1-4)GlcNAc(b1-2)Man(a1-6)]Man(b1-4)GlcNAc(b1-4)GlcNAc
# Summary of the method: as §1
# [5] = target: Neu5Ac(a2-6)Gal(b1-4)GlcNAc(b1-2)Man(a1-6)Man(b1-4)GlcNAc(b1-4)GlcNAc
# Summary of the method: as §1
# [6] = target: Neu5Ac(a2-6)Gal(b1-4)GlcNAc(b1-2)Man(a1-6)[Gal(b1-4)GlcNAc(b1-2)Man(a1-3)]Man(b1-4)GlcNAc(b1-4)GlcNAc
# Summary of the method: as §1
# [7] = target: Neu5Ac(a2-6)Gal(b1-4)GlcNAc(b1-2)Man(a1-6)[GlcNAc(b1-2)Man(a1-3)]Man(b1-4)GlcNAc(b1-4)GlcNAc
# Summary of the method: as §1
# [8] = target: Neu5Ac(a2-6)Gal(b1-4)GlcNAc(b1-2)Man(a1-6)[Man(a1-3)]Man(b1-4)GlcNAc(b1-4)GlcNAc
# Summary of the method: as §1
# [9] = target: Neu5Ac(a2-6)Gal(b1-4)GlcNAc(b1-3)Gal(b1-3)GlcNAc
# Summary of the method: as §1
# [10] = target: Neu5Ac(a2-6)Gal(b1-4)GlcNAc(b1-3)Gal(b1-4)GlcNAc
# Summary of the method: as §1
# [11] = target: Neu5Ac(a2-6)Gal(b1-4)GlcNAc(b1-3)Gal(b1-4)GlcNAc(b1-3)Gal(b1-4)GlcNAc
# Summary of the method: as §1
# [12] = target: Neu5Ac(a2-6)Gal(b1-4)GlcNAc(b1-3)Gal(b1-4)[Fuc(a1-3)]GlcNAc(b1-3)Gal(b1-4)[Fuc(a1-3)]GlcNAc
# Summary of the method: as §1
# [13] = target: Neu5Ac(a2-6)Gal(b1-4)GlcNAc(b1-3)GalNAc
# Summary of the method: as §1
# [14] = target: Neu5Ac(a2-6)Gal(b1-4)GlcNAc6S
# Summary of the method: as §1
# Neu5Ac(a2-6)GalNAc = target: Neu5Ac(a2-6)GalNAc
# Summary of the method: as §1
# [15] = target: Neu5Ac(a2-6)GalNAc(b1-4)GlcNAc
# Summary of the method: as §1
# [16] = target: Neu5Ac(a2-6)GlcNAc(b1-4)GlcNAc
# Summary of the method: as §1
# [17] = target: Neu5Ac(a2-6)GlcNAc(b1-4)GlcNAc(b1-4)GlcNAc
# Summary of the method: as §1
# Neu5Ac(a2-8)Neu5Ac = target: Neu5Ac(a2-8)Neu5Ac
# Summary of the method: as §1
# [18] = target: Neu5Ac(a2-8)Neu5Ac(a2-3)Gal(b1-3)GalNAc(b1-4)[Neu5Ac(a2-8)Neu5Ac(a2-3)]Gal(b1-4)Glc
# Summary of the method: as §1
# [19] = target: Neu5Ac(a2-8)Neu5Ac(a2-3)Gal(b1-4)Glc
# Summary of the method: as §1
# [20] = target: Neu5Ac(a2-8)Neu5Ac(a2-3)[Gal(b1-3)GalNAc(b1-4)]Gal(b1-4)Glc
# Summary of the method: as §1
# [21] = target: Neu5Ac(a2-8)Neu5Ac(a2-3)[GalNAc(b1-4)]Gal(b1-4)Glc
# Summary of the method: as §1
# [22] = target: Neu5Ac(a2-8)Neu5Ac(a2-8)Neu5Ac
# Summary of the method: as §1
# [23] = target: Neu5Ac(a2-8)Neu5Ac(a2-8)Neu5Ac(a2-3)Gal(b1-4)Glc
# Summary of the method: as §1
# [24] = target: Neu5Ac(a2-8)Neu5Ac(a2-8)Neu5Ac(a2-3)[GalNAc(b1-4)]Gal(b1-4)Glc
# Summary of the method: as §1
# [25] = target: Neu5Ac(a2-8)Neu5Ac(a2-8)Neu5Ac(a2-8)Neu5Ac(a2-3)[GalNAc(b1-4)]Gal(b1-4)Glc
# Summary of the method: as §1
# [26] = target: Neu5Ac(b2-6)Gal(b1-4)GlcNAc
# Summary of the method: as §1
# Neu5Ac(b2-6)GalNAc = target: Neu5Ac(b2-6)GalNAc
# Summary of the method: as §1
# [27] = target: Neu5Ac9Ac(a2-3)Gal(b1-3)GlcNAc
# Summary of the method: as §1
# [28] = target: Neu5Ac9Ac(a2-3)Gal(b1-4)GlcNAc
# Summary of the method: as §1
# [29] = target: Neu5Ac9Ac(a2-6)Gal(b1-4)GlcNAc
# Summary of the method: as §1
# [30] = target: Neu5Gc(a2-3)Gal(b1-3)GlcNAc
# Summary of the method: as §1
# [31] = target: Neu5Gc(a2-3)Gal(b1-3)[Fuc(a1-4)]GlcNAc
# Summary of the method: as §1
# Neu5Gc(a2-3)Gal(b1-4)Glc = target: Neu5Gc(a2-3)Gal(b1-4)Glc
# Summary of the method: as §1
# [32] = target: Neu5Gc(a2-3)Gal(b1-4)GlcNAc
# Summary of the method: as §1
# [33] = target: Neu5Gc(a2-3)Gal(b1-4)[Fuc(a1-3)]GlcNAc
# Summary of the method: as §1
# [34] = target: Neu5Gc(a2-6)Gal(b1-4)GlcNAc
# Summary of the method: as §1
# Neu5Gc(a2-6)GalNAc = target: Neu5Gc(a2-6)GalNAc
# Summary of the method: as §1
# [35] = target: Neu5Gc(b2-6)Gal(b1-4)GlcNAc
# Summary of the method: as §1
binder,measurement,setting,value
B1,glycan array binding signal (z-score),[1],-0.458
same,glycan array binding signal (z-score),[2],-0.293
same,glycan array binding signal (z-score),[3],-0.411
same,glycan array binding signal (z-score),[4],-0.174
same,glycan array binding signal (z-score),[5],-0.389
same,glycan array binding signal (z-score),[6],0.956
same,glycan array binding signal (z-score),[7],-0.283
same,glycan array binding signal (z-score),[8],-0.341
same,glycan array binding signal (z-score),[9],-0.3
same,glycan array binding signal (z-score),[10],-0.454
same,glycan array binding signal (z-score),[11],-0.331
same,glycan array binding signal (z-score),[12],-0.015
same,glycan array binding signal (z-score),[13],0.079
same,glycan array binding signal (z-score),[14],-0.25
same,glycan array binding signal (z-score),Neu5Ac(a2-6)GalNAc,-0.404
same,glycan array binding signal (z-score),[15],-0.396
same,glycan array binding signal (z-score),[16],-0.449
same,glycan array binding signal (z-score),[17],-0.444
same,glycan array binding signal (z-score),Neu5Ac(a2-8)Neu5Ac,-0.409
same,glycan array binding signal (z-score),[18],-0.264
same,glycan array binding signal (z-score),[19],-0.435
same,glycan array binding signal (z-score),[20],-0.25
same,glycan array binding signal (z-score),[21],-0.165
same,glycan array binding signal (z-score),[22],-0.3
same,glycan array binding signal (z-score),[23],-0.215
same,glycan array binding signal (z-score),[24],-0.262
same,glycan array binding signal (z-score),[25],-0.322
same,glycan array binding signal (z-score),[26],0.567
same,glycan array binding signal (z-score),Neu5Ac(b2-6)GalNAc,-0.413
same,glycan array binding signal (z-score),[27],-0.297
same,glycan array binding signal (z-score),[28],-0.214
same,glycan array binding signal (z-score),[29],-0.479
same,glycan array binding signal (z-score),[30],-0.468
same,glycan array binding signal (z-score),[31],-0.266
same,glycan array binding signal (z-score),Neu5Gc(a2-3)Gal(b1-4)Glc,-0.407
same,glycan array binding signal (z-score),[32],-0.316
same,glycan array binding signal (z-score),[33],-0.413
same,glycan array binding signal (z-score),[34],-0.437
same,glycan array binding signal (z-score),Neu5Gc(a2-6)GalNAc,-0.312
same,glycan array binding signal (z-score),[35],1.53
